The results in this text go back to patent US11542275B2, “Substituted imidazolidin-2-one derivatives as PRMT5 inhibitors” (Aurigene Discovery Technologies Limited, priority 2018, dated 2023).

What is called IC50 is the concentration that gives 50% inhibition. Higher therefore signals weaker potency in that assay.

The target of the assay is PRMT5/MEP50 Complex (Homo sapiens (Human), UniProt O14744). Kind of assay: PRMT5 inhibition based on TR-FRET assay. The format is biochemical. Particulars: 32 nM PRMT5:MEP50 complex, 50 nM Histone-H4 peptide, 1 μM SAM, 90 minutes at room temperature. The source says:
Protein arginine methyltransferase 5 (PRMT5) is a type II arginine methyltransferase that catalyze mono- and symmetric demethylation on arginine residues of histone or non-histone proteins in presence of S-adenosylmethionine (AdoMet or SAM) a cofactor responsible for donating the methyl group. PRMT5 is reported to be overexpressed in several human cancers. To identify compounds that inhibit the PRMT5 and decrease its activity, a TR-FRET based assay has been established. Time-resolved fluorescence resonance energy transfer (TR-FRET) HTS assays are homogeneous proximity assays where the interaction of two dye-labeled binding partners is detected by the energy transfer between a donor and an acceptor dye, and the subsequent light emission by the acceptor dye. PRMT5 catalyzes Histone H4 peptide which is biotin tagged to the Lysine amino acid at carboxyl end, in presence of S-adenosyl-1-methionine (SAM) to methylate the peptide. The antibody specific to mono methylated H4 peptide (H4R3) with Ig conjugate binds to the methylated peptide, indirectly binding to the Europium lanthanide. […]
The compound dilutions were prepared as 7.5% DMSO stock solutions in assay buffer. […] The plates were then read on Victor-3 with Excitation at 340 nm and Emissions collected at 615 and 665 nm in TR-FRET protocol. […]
For orientation: In TR-FRET formats the signal depends on donor and acceptor labels being close together.

The compound `O=C1N(Cc2ccc(C3CC3)nc2)CCN1CC(O)CN1CCc2ccccc2C1` (centres unmarked) [Compound 75, 1-((6-cyclopropylpyridin-3-yl)methyl)-3-(3-(3,4-dihydroisoquinolin-2(1H)-yl)-2-hydroxypropyl)imidazolidin-2-one] registered an IC50 of 207 nM. This counts as sub-micromolar. In the case of `CC1(C)C(=O)N(Cc2ccc(C3CC3)nc2)C(=O)N1CC(O)CN1CCc2ccccc2C1` (centres unmarked) [Compound 76, 3-((6-cyclopropylpyridin-3-yl)methyl)-1-(3-(3,4-dihydroisoquinolin-2(1H)-yl)-2-hydroxypropyl)-5,5-dimethylimidazolidine-2,4-dione] it was 61 nM.
